# Measurements published in the RNAGym collection of RNA variant scans (doi:10.7554/elife.90254).
# The source gives no read counts; variants with many changes may rest on few reads.
# B1: LINE1-mini (parent)
# chain: GGCAGAGCUCAACACAGCGUGGCAAAGUGGCUGUGGCUAGACUGCC
# Variants of: B1
# Assay: self-cleavage, relative activity (ratio to wild type); higher = more cleavage; in vitro, sequencing; the parent is a self-cleaving ribozyme
row,Variant,self-cleavage
1,GGAAGAUCCCAAGACAGCGUGGCAAAGUGGCUGUGGCUAUACUUCC [C3A G7U U9C C13G G40U G44U],0.01
2,GGAAGAGCUCAACACAGCGUGGCAAAGUGGCUGUGGCUAGAGCGCC [C3A C42G U43C],0.02
3,GGAAGAGCUCAACACACCGUGUCAAAGCGGCUGUGGCUAGACUGCC [C3A G17C G22U U28C],0.51
4,GGAAGAGCUCAACACACCGUGGCAAAGUGGCUGCGGCUAGACUGCC [C3A G17C U34C],0.17
5,GGAAGAGCUCAACACAGCAUGGAAAAGUGGCUGUGGUUAGACUGCC [C3A G19A C23A C37U],0.08
6,GGAAGAACUCAACAAAGCGUGGCAAAGUGGCUGUGGCAAGACUGAA [C3A G7A C15A U38A C45A C46A],0.08
7,GGAAGAGCUCAACACAAGGUGGCAGAGUGGCUGUUGCUAGACUGCC [C3A G17A C18G A25G G35U],0.23
8,GGAACAGCUCAACACAGCGUGUCAAUGUGGUUGUGGCUAGACUGCC [C3A G5C G22U A26U C31U],0.02
9,GGAAAAGCUCAACACACCGUGGCAAAGUGGCUGUCGCUAGCCUGCC [C3A G5A G17C G35C A41C],0.25
10,GGAAGAGCUCAACACAGCGUGGCAAAGUGGCUGUGGGUAGGCUGCC [C3A C37G A41G],0.18
11,GGAAGAGCUCAACACAACGUGGCAAAGUGGCUGUGGAGCGACUUCC [C3A G17A C37A U38G A39C G44U],0.01
12,GGAAGACCUCAACACAGCGUGGCAAAGUGGCUGUGGCUAGACUGCA [C3A G7C C46A],0.12
13,GGAAGAUCUCAACAAAGCGUGGCAAAGUGGCUGUGGCUAGACUGCC [C3A G7U C15A],0.17
14,GGAAGAACUCAAUACAGCGUGGCAAAGUGGCUGUGGCUAGACUGCC [C3A G7A C13U],1.31
15,GGAAGAUCUCAACACAGCGUGGCAAAGUGGCUAUGGCUAGACUGCC [C3A G7U G33A],0.22
16,GGAACGGCUCAACACAGCGUGGCAAAAUGGCUGUGGCUAGACUGCA [C3A G5C A6G G27A C46A],0.12
17,GGAAUAGCUAAACACAGCGUGGCAAAGUGGUUGUGGCUAGACUGCC [C3A G5U C10A C31U],0.02
18,GGAAGACCUAAACACAGCGUGGCAAAGUGGCUGUGGCUAGACUGCC [C3A G7C C10A],0.05
19,GGAAUAGCUCAACAUAGCAUGGCAAAGUGGCUGUGGCUAGACUGCC [C3A G5U C15U G19A],0.48

row,Variant,self-cleavage
1,GGAACAACUCAACACAGCGUGGCAAAGUGGCUGUGGCUAGACUGCC [C3A G5C G7A],0.56
2,GGAAGAUCUCAACACAGCGUGGCAGAGUGGCUGUGGCUAGAUUUCC [C3A G7U A25G C42U G44U],0.03
3,GGAAGAACUCAACUCCGCGAGGCAGCGUGGCUGUGGCUAGACUGCC [C3A G7A A14U A16C U20A A25G A26C],0.37
4,GGAAGACCUCAACACAGCGUGUUAAUGUGGCUGCGGCUAGACUGCC [C3A G7C G22U C23U A26U U34C],0.1
5,GGAAGAGCUCAACACAUCGUGGCAAAGUGUCUCUGGCUAGACUGCU [C3A G17U G30U G33C C46U],0.11
6,GGAAGAUAUCAACACAGCGUGGCAAAGUGGCUGUGGAUAGACUGCC [C3A G7U C8A C37A],0.03
7,GGAACAGCUCAGCACAGAGUGGCAAAGCGGCUGUGUCUAGAGUGCC [C3A G5C A12G C18A U28C G36U C42G],0.18
8,GGAAUAGCUCAACACAGCGUGGCGAAGUGGCUGUGGCUAGACUGAC [C3A G5U A24G C45A],0.08
9,GGAAAAGCUCAACACCGCGUGGCAAAAUGGCUGUGGCUAGACUUCC [C3A G5A A16C G27A G44U],0.27
10,GGAAGAGCUCAACACAUCGUGGCAAAGUGGCCGUGGCUAGACUGCC [C3A G17U U32C],0.11
11,GGAAGAGCUCAACACAGCAUGGAAAAGUGGCUCUGGCUAGACUGCC [C3A G19A C23A G33C],0.08
12,GGAAGAACUCAACACAGAGUCGCAAAGUGGCUGUGGCUAGACUUCC [C3A G7A C18A G21C G44U],0.02
13,GGAAGAACGCAACGCAGCGUGGCAAAGUGGCUGUGGCUAGACUGAC [C3A G7A U9G A14G C45A],0.26
14,GGAAGAGCUCAACACAUCGUGGCUAAGUGGCUGUGACUAGACUGCC [C3A G17U A24U G36A],0.16
15,GGAAAAGCUUACCACAGCGUGGCAGAGUGGCUGUGGCUAGACUGCC [C3A G5A C10U A12C A25G],0.03
16,GGAAGAUCGCAACACAGCGUGGCAAAGUGGGUGUGGCUAGACUGCC [C3A G7U U9G C31G],0.16
17,GGAAGAGCUCAACACAUCGCGGCAAAGUGGCUGUGGUUAGAAUGCC [C3A G17U U20C C37U C42A],0.26
18,GGAAGACCUCAACACAGCGUUGCAAAGUGGAUGUUGCUAGACUGCC [C3A G7C G21U C31A G35U],0.12
19,GGAAGAUCUCAACACAGCCUGGCAAAGUGUCUCUGGCUAGACUGCC [C3A G7U G19C G30U G33C],0.12

row,Variant,self-cleavage
1,GGAAGAUCCCAUAACAGCCUGGCAUAGUGGCUGUGGCUAGACUGCC [C3A G7U U9C A12U C13A G19C A25U],0.01
2,GGAAGACCUUAACACAUCUGGGCAAAGUGGCUGUGGCUGGACUUCC [C3A G7C C10U G17U G19U U20G A39G G44U],0.03
3,GGAAAAGCUCAACACAGCGUGCCAAAGUGGCUGUGGCUACACUGCC [C3A G5A G22C G40C],0.4
4,GGAACAGCUCAACCCAGCUUGGCAAAGUGGCUCUGGCUAGACUGCC [C3A G5C A14C G19U G33C],0.09
5,GGAAGACCUCAACACAGCGAGACAAAGUGGCUGUGGCUAGACUGCC [C3A G7C U20A G22A],0.04
6,GGAAAAGCUCAACACAGCGUGGCAAAGUGGCAGUGGCUACACUGCC [C3A G5A U32A G40C],0.12
7,GGAAGAUCUCAACACAGCGUGGCAAAGUGGCUGUGGCUAUACUGCC [C3A G7U G40U],0.07
8,GGAAGAUCUCAACACAGCGUGGCAAAGUGGCUGUGACUAGACAGCC [C3A G7U G36A U43A],0.05
9,GGAAUAGCUCAACACAGCGUGGCAAAGUGGCUGUGGCUAGAUUGCC [C3A G5U C42U],0.17
10,GGAAAAGCUCAACACAGCGUGGCAAAGUGGCUGUGGCUCGAUUGCC [C3A G5A A39C C42U],0.24
11,GGAAGAUCUCAACACAGCGAAGCAAAGUGGCUGUGGCUAGACUGCC [C3A G7U U20A G21A],0.13
12,GGAACAGCUCAACACAGGGAGGUAAAGUGGCUGUGGCUAGACUGCC [C3A G5C C18G U20A C23U],0.05
13,GGAAGACCUCAACACAACGUGACAAAGUAGCUGUGGCUUAACUGUC [C3A G7C G17A G22A G29A A39U G40A C45U],0.31
14,GGAAGAGCUCAACACAUAGUGGCAAAGUGGCUGUGGCUAGACUGCC [C3A G17U C18A],0.03
15,GGAAGAUCUUAACACAGCGUGGCAAAGUGGCUGAGGCUAGACUGCC [C3A G7U C10U U34A],0.04
16,GGAAGAGCUCAACACAGCAUGGCAACGUGGCUGUGGCUAGACUGCC [C3A G19A A26C],1.82
17,GGAAGAUCUCAACACAGCGUGGCAAAGUGGUUGUGGCUAGACUGCC [C3A G7U C31U],0.34
18,GGAAGAGCUCAACACACCGUGGCAAAGUGUCUGUGGCUAGACUGCU [C3A G17C G30U C46U],0.11
